# Source: the supplement of paper PMC10126150
# Sequences with one replicate were seen in a single cluster, so their values are uncertain.
# Tested on: ATP
# Assay: switch fluorescence ratio, 500 uM ATP over buffer (Cy3 cluster intensity, sum of 5 cycles each) (fold (ratio)); higher = stronger signal-on switching upon ATP binding; sequences stand for … in TCGTCGGCAGCGTCAGATGTGTATAAGAGACAGTTTTTTTTTTTTTTTTTTTTTTTTT…TC
# Conditions: aptamer strand: ATP DNA aptamer (quencher-CACCTGGGGGAGTATTGCGGAGGAAGG + anchor), 100 nM annealed; ATP concentration: 500 uM; one replicate
# Procedure, shortened: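 Switching-strand clusters labelled with Cy3 on a modified Illumina MiSeq flow-cell were annealed to 100 nM quencher-labelled ATP aptamer, imaged in selection buffer, and re-imaged after 15 min with 500 uM ATP at 22 °C. This was done over five cycles with NaOH stripping and re-annealing in between. The fluorescence ratio is summed target-cycle over summed buffer-cycle Cy3 intensity per cluster, averaged per switch-domain sequence, excluding clusters outside 100-1000 RFU.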
# 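Note: ATP exposure 15 min at 22 °C before imaging.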
row,Sequence,switch fluorescence ratio
1,GGCGACTACT,1.04
2,CTTGAGTCGG,1
3,CTCACCGCCG,1.12
4,ATGGTTTTCG,1.02
5,AGTCTTACGG,0.971
6,CCGGGCGTTG,0.998
7,CCCCGGTCTT,1.07
8,GGGGTAGACG,0.988
9,CCTAGTGTAT,0.974
10,TTAGTGAGT,0.966
11,GAGCACGAAG,0.969
12,GTATTCTTGA,0.985
13,TGTTAGTGCA,0.972
14,AGGCTCGTA,1.01
15,AAAGTGCGGC,0.971
16,TTTGGGCGTA,1.04
17,CCCGGTCTTA,1
18,TAACCGTTGC,1.35
19,AATACGGGAT,1.05
20,TATAGAAGCA,1.01
21,GGCCAAGTGA,0.967
22,CGGAGCGAGA,2.21
23,GCACGAATGA,1.1
24,GCTTCGATGT,1.04
25,AGTTGAGAGT,1.02

row,Sequence,switch fluorescence ratio
1,TTAGTCGTTC,1.05
2,AGGGGGCCGG,1.04
3,ATCAATGAG,0.972
4,GCCACAACAT,0.984
5,CGCCCTGATG,1.24
6,TGAGATGAGC,0.994
7,CATACGGGG,1.04
8,TATCTATTC,0.943
9,CGGCGCGTGT,0.935
10,ATGCGACGTG,0.965
11,TCCGCTACCG,1.54
12,TACTTTATGC,1.14
13,CAGTCTGCGC,1.08
14,TGTCACCATT,1.06
15,ATGCCGCTAC,1.75
16,TAGAGTCAGC,0.979
17,CTGTCATTAC,3.65
18,ACAAGTTGAG,1.01
19,TTAGAGAATT,1.01
20,TCGGCCGAAG,0.983
21,CCCTAGGGA,1.16
22,TTAGCTGACA,1.01
23,AACTTACTAA,1.15
24,GGAAGAAGGT,1.02
25,AAATAGTATT,1.01

row,Sequence,switch fluorescence ratio
1,GATCCATTTC,0.952
2,TAAACCAGAC,2.13
3,TCCATCAGGC,1.09
4,TCGTTGCGGT,0.999
5,GTGGACGTTA,1.04
6,ACCACGTGGG,1.02
7,TCCGGGCCAA,3
8,TTTACTCAAT,1.87
9,GATGCTGGGA,0.965
10,GTCAGCATGA,0.974
11,AGGACAGACT,0.945
12,GTAGTGGGTC,0.998
13,TTGAGCTTTC,1.06
14,GAGTACCGGC,0.943
15,TATCATCGCA,1.07
16,ATCATTGTAT,1.03
17,TAGATTCTTA,1.02
18,CGCGCGCTTG,1
19,ACATCCTCGC,1.72
20,TATCGATGGG,1.02
21,TCCAATAAGT,0.989
22,AGCTAACTCA,1.09
23,TGCGATGGGC,1.02
24,TGGCTTACCA,0.999
25,GGTTTTCGTA,1.01

row,Sequence,switch fluorescence ratio
1,TCGGTTGCCG,0.99
2,GGCTTGGATA,1.02
3,AATCATCGCT,1.03
4,TTGTCGAAAC,1.03
5,AGCCAGTTGT,1
6,AAACATTGTA,1
7,TGATCGTTT,0.995
8,TAGTCTTCGC,1.15
9,GAGTTGGATG,0.983
10,CGAAAATCCA,0.972
11,TTCAAGCGGA,1.02
12,GAAAACGGAT,0.994
13,GCGGCCGGAA,1.01
14,TTTTGGCAAA,0.948
15,TTGTGTGCCT,1.04
16,GAACATAGCA,1.07
17,TTACAACCGG,0.998
18,CAGCGGCCCG,1.02
19,CAAATCATGG,1.02
20,AGTTGGACA,0.983
21,ATAGTGGAAC,0.981
22,TCTTGTTGCA,1.01
23,TTCGTTAGTA,1.03
24,TTCGAGCTAC,3.25
25,GTTTGAATAA,0.983
